The experiment addresses glutathione S-transferase-calreticulin (GST-CRT) (UniProt P15253). The experiment is described as follows: pull-down; GST-CRT or GST-CRT-Y109A on glutathione beads, 16 h at 4 C with lysate (MNT: 20 mM MES, 100 mM NaCl, 30 mM Tris pH 7.5, 0.5% Triton X-100, protease inhibitors, 20 mM NEM) of ALG6-/-, ALG6/UGGT1-/- or ALG6/UGGT2-/- HEK293-EBNA1-6E cells treated with 500 uM DNJ for 14 h; immunoblot; percent reglucosylation = (GST-CRT lane minus Y109A lane) / total in whole cell lysate x 100. A general note: Immunoblotting shows a protein as a band on a membrane.
Chain of UniProt P15253 (P15253 18-418): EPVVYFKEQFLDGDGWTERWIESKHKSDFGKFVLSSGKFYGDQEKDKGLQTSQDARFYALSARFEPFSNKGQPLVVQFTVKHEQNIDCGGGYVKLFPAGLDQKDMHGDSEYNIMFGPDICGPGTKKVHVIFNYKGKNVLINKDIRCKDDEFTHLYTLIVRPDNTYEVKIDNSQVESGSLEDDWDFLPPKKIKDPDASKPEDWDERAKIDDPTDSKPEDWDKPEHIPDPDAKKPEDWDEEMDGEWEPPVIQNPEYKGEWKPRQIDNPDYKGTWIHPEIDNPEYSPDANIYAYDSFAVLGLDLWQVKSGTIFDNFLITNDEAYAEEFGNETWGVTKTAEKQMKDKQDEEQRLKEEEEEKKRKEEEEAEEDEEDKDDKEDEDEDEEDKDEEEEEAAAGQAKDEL

This passage reports percent reglucosylation (bound by GST-CRT minus GST-CRT-Y109A, of the total in the lysate), ALG6-/- cells results from publication PMC7771966.

In turn, “cation-independent mannose-6-phosphate receptor (CI-M6PR) (a stretch of the chain, sequence left out) (receptor; monoglucosylated N-glycans (reglucosylated by the UGGTs; sites not stated))” displayed a percent reglucosylation (bound by GST-CRT minus GST-CRT-Y109A, of the total in the lysate), ALG6-/- cells of 10%.
